Test results taken from the supplement of paper PMC12645437, “Orthogonal IMiD-Degron Pairs Induce Selective Protein Degradation in Cells” (ACS Chemical Biology, 2025).
Some of the results follow.

These sequences were tested against no compound (DMSO) (assay: log2 fold change of degron read counts, EGFP-low vs EGFP+ sorted cells; higher = lower degron-EGFP level without compound (poor expression or instability)). Settings: compound: DMSO control; 18 h.
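Further: jurkat cells carrying a lentiviral library of mutant zinc finger degrons fused to EGFP plus mCherry, mCherry+ cells FACS sorted, degron abundance counted by next-generation sequencing.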

Sequence | log2 fold change of degron read counts
FDCEICGRYFTQKGNLLRHIKL | 0.281
FSCDQCGAEFTQKGNLLRHIKL | -1.69
FMCPICGHNFTQKGNLLRHIKL | -0.404
FHCNICGADFTQKGNLLRHIKL | -1.24
FICNQCGAFFTQKGNLLRHIKL | -0.204
FYCNQCGRLFTQKGNLLRHIKL | 1.06
FQCPICGAVFTQKGNLLRHIKL | -0.188
FRCNQCGRVFTQKGNLLRHIKL | 0.319
FTCPICGHEFTQKGNLLRHIKL | -0.922
FQCPICGARFTQKGNLLRHIKL | -0.52
FSCPICGAGFTQKGNLLRHIKL | -0.183
FDCDQCGAQFTQKGNLLRHIKL | -2.78
FQCEVCGALFTQKGNLLRHIKL | -1.54
LVCNQCGFVCTQKGNLLRHIKL | -0.606
